Reference: PubChem BioAssay AID1030 (National Center for Advancing Translational Sciences (NCATS), 2008)
Values joined by “and” are separate entries in the source; they are usually repeats but may differ in a detail not shown here. Equal entries are not always repeated. Among all 220,000 compounds or so, about 16,000 (7.3%) were called active. Inconclusive means that the source gave no clear call. Such entries were picked first, then a sample of the others. Calls come from the whole dose curve; as a rule, active = well fitted inhibition curve with a large enough effect (not every such curve was filed as active); inconclusive = small, poorly fitted or top-dose-only effect, or another doubt; inactive = no such curve, though single readings can be large or run the other way. No potency is given beside an inconclusive call; the fits are too rough. Where a structure was tested more than once in an assay, its records may differ in their call.

Target: Aldehyde dehydrogenase 1A1 (Homo sapiens) (UniProt P00352)
Assay: qHTS Assay for Inhibitors of Aldehyde Dehydrogenase 1 (ALDH1A1);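 for activity, negative = inhibition: plate controls were no enzyme wells and a reference inhibitor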
Conditions: Purified ALDH1A1, NADH fluorescence, propionaldehyde substrate; series mostly up to 75.3 µM; activity, negative = inhibition: at the top concentration
Potency is the fitted concentration of half-maximal effect; tags give direction and shape of the fitted curve.

Chain of UniProt P00352 (P00352 whole entry, looked up): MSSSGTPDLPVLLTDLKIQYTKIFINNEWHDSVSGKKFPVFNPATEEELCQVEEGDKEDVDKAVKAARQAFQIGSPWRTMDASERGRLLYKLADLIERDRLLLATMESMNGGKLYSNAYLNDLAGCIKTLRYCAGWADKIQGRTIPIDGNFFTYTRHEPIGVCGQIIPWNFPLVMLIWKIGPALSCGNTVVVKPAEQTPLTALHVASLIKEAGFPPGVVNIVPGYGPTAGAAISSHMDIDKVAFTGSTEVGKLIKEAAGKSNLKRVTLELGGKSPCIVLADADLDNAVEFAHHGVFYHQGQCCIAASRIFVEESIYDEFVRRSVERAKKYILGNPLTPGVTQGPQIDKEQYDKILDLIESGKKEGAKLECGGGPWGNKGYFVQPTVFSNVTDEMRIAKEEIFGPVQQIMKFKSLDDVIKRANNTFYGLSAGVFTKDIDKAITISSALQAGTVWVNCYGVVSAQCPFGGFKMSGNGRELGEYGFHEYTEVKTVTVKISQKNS

Structure (SMILES) | Potency | activity, negative = inhibition
O=C(Cn1cnc2c(nnn2Cc2ccc(Cl)cc2)c1=O)NCc1ccco1 | inconclusive [inhibitor, single point] | 
Cc1ccc2nc(-c3ccc(SCC(=O)Nc4cc(C)on4)nc3)[nH]c2c1 | inconclusive [inhibitor, single point] | 
COc1c(C2=CC(=O)N(C)C2=O)c2c(n1C)C(=O)c1ccccc1C2=O |  | inactive: -0.114%
CCOC(=O)c1c(C)[nH]c(C)c1C(=O)COC(=O)/C=C/c1cccc(Cl)c1 | inconclusive [inhibitor, single point] | 
CC(=O)OCCN(C)c1cc(SC(C)C)c2nonc2c1[N+](=O)[O-] | inconclusive [inhibitor, single point] | 
O=c1c2c(nc3n1CCCCC3)-c1ccccc1CC21CCCC1 | active: 0.631 µM | 
CCOC(=O)c1oc2ccc(OC)cc2c1NC(=O)CN1CCN(C)CC1 | inconclusive [inhibitor, partial curve] | 
CCN(CC)C(=O)c1ccc2c3c(cccc13)C(=O)N(CCc1ccc(OC)c(OC)c1)C2=O |  | inactive: -8.84%
CCN(CC)C(=O)CSc1nc2c(sc(=S)n2Cc2ccco2)c(=O)n1-c1ccccc1 | active: 6.31 µM | 
C=C1C2=CC(=O)OC(c3ccoc3)[C@]2(C)CCC1[C@]1(C)C=CC(=O)C(C)(C)C1CC(=O)OC (stereo partly specified) | inconclusive [inhibitor, single point] | 
COc1ccc(NC(=O)C2CCC(N3C(=O)C4C5C=CC(C5)C4C3=O)CC2)cc1 (stereo unspecified) | active: 7.94 µM | 
Cc1cccc(Oc2ccc(NC(=O)C3CC=CCC3C(=O)O)cc2)c1 (stereo unspecified) | active: 1.78 µM | 
CCOc1cc(N2CCOCC2)c(OCC)cc1NC(=O)COc1ncnc2ccccc12 | inconclusive [inhibitor, single point] | 
CCCn1c(SCC(=O)Nc2cccc(C(=O)OCC)c2)nnc1-c1ccoc1C | inconclusive [inhibitor, partial curve] | 
COc1cc(C2N(c3ccccn3)C(=O)C3CCCN32)cc(OC)c1OC (stereo unspecified) | active: 22.4 µM | 
S=c1[nH]nc(Cn2cnc3ccccc32)n1-c1ccccc1Cl | inconclusive [inhibitor, single point] | 
Cc1noc(NC(=O)Nc2ccccc2F)c1C#N |  | inactive: -2.16% [at 13.5 µM]
O=C(COc1ccccc1-c1ccccc1)NN=C1CCCC1 | active: 11.2 µM | 
COc1ccc(CNC(=O)c2coc(=O)c3ccccc23)c(OC)c1 |  | inactive: -10.6%
N#CCSc1nc2c(c(C3CC=CCC3)c1C#N)CCC2 (stereo unspecified) | inconclusive [inhibitor, single point] | 
CCCn1c(=O)c(Cc2ccccc2)c(O)c2ccccc21 | inconclusive [inhibitor, partial curve] | 
Cc1cc(Cl)ccc1OCCCC(=O)NN | inconclusive [inhibitor, partial curve, poor fit] | 
CN1CCN(CCCNC(=O)c2ccc(/C=C3\Sc4ccccc4N(Cc4ccccc4F)C3=O)cc2)CC1 | inconclusive [inhibitor, single point] | 
O=C(CSc1nnc(-c2ccc(Cl)cc2)n1Cc1ccco1)NCc1ccc2c(c1)OCO2 | inconclusive [inhibitor, single point] | 

Structure (SMILES) | Potency | activity, negative = inhibition
CCS(=O)(=O)c1ccc(-c2csc(-c3ccccc3Cl)n2)c(Cl)c1Cl | inconclusive [inhibitor, single point] | 
CSc1cnc2c(=O)n(C)c(=O)[nH]c2n1 | inconclusive [inhibitor, single point] | 
Nc1ccc2c(c1)N1CCN=C1S2 |  | inactive: 2.47%
COc1ccc(C(=O)C2CCCN(C(=O)COc3ccc(C(C)=O)cc3)C2)cc1F (stereo unspecified) | inconclusive [inhibitor, single point] | 
Cc1ccc(/C=C/C(=O)N2CC(=O)Nc3ccccc32)o1 | active: 20 µM | 
N#Cc1cccc(S(=O)(=O)NCC(=O)OCC(=O)c2ccc[nH]2)c1 |  | inactive: 11.2%
N/C(CC(=O)Nc1cc(C(F)(F)F)ccc1Cl)=N\O | active: 28.2 µM | inactive: 2.97% [at 13.5 µM]
Cc1ccc(C2CC(=O)NC(SCC(N)=O)=C2C#N)s1 (stereo unspecified) | inconclusive [inhibitor, partial curve] | 
O=C(/C(=N\Nc1ccccc1)Sc1nnnn1-c1ccccc1)c1ccccc1 | active: 1.41 µM | 
Cc1cccc(C(=O)n2c(=S)nc3cc(C)ccn32)c1 | inconclusive [inhibitor, partial curve] | 
COc1ccc(C(=O)Nn2c(SCC(=O)NCc3ccccc3)nc3ccccc3c2=O)cc1 | inconclusive [inhibitor, single point] | 
COc1ccccc1NC(=O)c1cc(Cl)ccc1NC(=O)c1ccco1 | inconclusive [inhibitor, single point] | 
COc1ccccc1-c1nnc(NC(=O)c2cccc(N3C(=O)CCC3=O)c2)o1 |  | inactive: -5.89%
COc1ccccc1-n1c(-c2cc(-c3ccc(F)cc3)n[nH]2)n[nH]c1=S | active: 31.6 µM | 
COc1ccc(CNCc2c(C(=O)N(C)C)nc3ccc(Cl)cn23)c(OC)c1 | inconclusive [inhibitor, partial curve] | 
COc1cc(C2Nc3cc(Cl)c(S(N)(=O)=O)cc3S(=O)(=O)N2)ccc1OCc1ccccc1 (stereo unspecified) | inconclusive [inhibitor, single point] | 
COC(=O)c1c(NC(=O)COC(=O)CCS(=O)(=O)c2ccc(C)cc2)sc(C)c1C | inconclusive [inhibitor, partial curve] | 
COc1ccc(NC(=O)Cc2cccs2)c(OC)c1 |  | inactive: 5.83%
Cc1cccc2nc(CSc3nc4ccc([N+](=O)[O-])cc4[nH]3)c(Br)n12 | active: 25.1 µM | 
CCN(CC)C(=O)C(=O)c1cn(CCOc2ccccc2)c2ccccc12 | inconclusive [inhibitor, single point] | 
COC(=O)c1ccc(CN2CCN(C3CCCC3)C(CCO)C2)cc1 (stereo unspecified) |  | inactive: 10%
O=C(CCCN1C(=O)CSc2ncccc21)N1CCN(Cc2ccccc2)CC1 | active: 22.4 µM | 
COc1ccc(/C=C/C(=O)NCc2ccccn2)cc1OC | inconclusive [inhibitor, partial curve] | 
CS(=O)(=O)N1CCN(c2ccccc2NC(=O)c2ccc(Cl)cc2)CC1 | inconclusive [inhibitor, partial curve] | 

Structure (SMILES) | Potency | activity, negative = inhibition
Cc1cc(C)c[n+](CC(=O)c2ccc(-c3ccccc3)cc2)c1 | inconclusive [inhibitor, single point] | 
O=C(O)CC12CC3CC(C1)CC(n1ncc(NCc4ccc(F)cc4Cl)c(Cl)c1=O)(C3)C2 | inconclusive [inhibitor, single point] | 
CCOCCCNC(=O)CSCc1nc(-c2ccc(SC)cc2)oc1C | inconclusive [inhibitor, single point] | 
O=C(c1ccc(-n2cccc2)cc1)N1CCCCC1 | active: 31.6 µM | 
O=C(COc1ccc(Cl)cc1)NCc1nnc(SCC(=O)Nc2ccccc2)o1 | inconclusive [inhibitor, single point] | 
Cc1nc(NC(=O)CC(C)C)sc1-c1csc(Nc2ccc(Cl)cc2Cl)n1 | inconclusive [inhibitor, partial curve] | 
CC1CCN(C(=O)CSCC(=O)Nc2nc(-c3cccs3)cs2)CC1 | inconclusive [inhibitor, single point] | 
Cc1ccc([N+](=O)[O-])cc1NC(=O)c1ccoc1C | active: 20 µM | 
FC(F)(F)C(F)(F)c1nnc2ccc(-n3ccnc3)nn12 |  | inactive: 7.8%
O=C(Nc1ccc(OC(F)(F)F)cc1)c1[nH]ncc1[N+](=O)[O-] |  | inactive: -0.165%
COc1c(OC2OC(C(=O)O)C(O)C(O)C2O)cc(O)c2c(=O)cc(-c3ccccc3)oc12 (stereo unspecified) | inconclusive [inhibitor, single point] | 
Cc1cnc(CNc2nc(-c3cccc(NS(C)(=O)=O)c3)nc3ccccc23)cn1 |  | inactive: 10%
O=S(=O)(NCCNC/C=C/c1ccc(Br)cc1)c1cccc2cnccc12 | inactive and active: 22.4 µM | 
CCOc1ccccc1-c1n[nH]c(=S)o1 | inconclusive [inhibitor, single point] | 
O=c1c2ccccc2nc(SCc2ccc([N+](=O)[O-])cc2)n1CCCO | inconclusive [inhibitor, single point] | 
O=C(CC(c1ccccc1)C1CCCCC1=O)c1ccco1 (stereo unspecified) | inconclusive [inhibitor, partial curve] | 
CCN(CC)CCC(=O)Nc1cccc2c1C(=O)c1ccccc1C2=O | inconclusive [inhibitor, single point] | 
CC(C)c1cc(NC(=O)CSc2nnc(-c3ccccc3F)n2C)on1 | inconclusive [inhibitor, single point] | 
CCOc1ccc(C(=O)CN2CCN(S(=O)(=O)c3ccc(Br)cc3)CC2)cc1 | active: 22.4 µM | 
OCC1OC(n2cnc3c(=S)nc[nH]c32)C(O)C1O (stereo unspecified) | inconclusive [inhibitor, single point] | 
COc1ccc(Cn2c(=O)[nH]c3cc(C(=O)NCCCN4CCCCCC4)ccc3c2=O)cc1 | inconclusive [inhibitor, single point] | 
COC(=O)C1OC2(OC1C(=O)OC)c1ccccc1-c1ccccc12 (stereo unspecified) | inconclusive [inhibitor, single point] | 
